# Source: the supplement of paper PMC8728848
# The list shows a part of the results.
# B1: rCnSL-A (Clitocybe nebularis) (protein)
# chain: VNPNLPGPNDVFVGFRGTNNIVGAIYEKDGIKDTPLNNGADAEMGPGSYITDGLFTARIFASGSAGNNPGTTATVCKIYASGVQWRGAPKGYIPVAYFGNGPTAEQRRQTYLRTLGLPGTAIRFGNLNTNPGQGPTAPRQMVVPPGPLRSLLKASCFPAADTRLPQTLHYFEKRVDWNIITAADSQTWGH
# Legend:
# Experiment in all cases: glycan array binding signal (z-score within array); higher = stronger binding
# Settings in all cases: glycan notation: IUPAC condensed, linker removed
# [1] = biological target: Gal(b1-4)GlcNAc(b1-3)Gal(b1-4)GlcNAc(b1-6)[Gal(b1-3)]GalNAc
# In short: (§1)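 Arrays were curated from the Consortium for Functional Glycomics database, 3228 in total, and kept only where the protein sequence was available. Binding is expressed as a within-array Z-score. This score was averaged across arrays of the same protein sequence at different concentrations or buffers and across linkers, and negative values can be read as non-binding.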
# [2] = biological target: Gal(b1-4)GlcNAc(b1-3)Gal(b1-4)[Fuc(a1-3)]GlcNAc(b1-3)Gal(b1-4)[Fuc(a1-3)]GlcNAc
# In short: as §1
# [3] = biological target: Gal(b1-4)GlcNAc(b1-3)GalNAc
# In short: as §1
# [4] = biological target: Gal(b1-4)GlcNAc(b1-3)[Fuc(a1-3)GlcNAc(b1-6)]Gal(b1-4)Glc
# In short: as §1
# [5] = biological target: Gal(b1-4)GlcNAc(b1-3)[Gal(b1-4)GlcNAc(b1-6)]Gal(b1-4)GlcNAc
# In short: as §1
# [6] = biological target: Gal(b1-4)GlcNAc(b1-3)[GlcNAc(b1-6)]Gal(b1-4)GlcNAc
# In short: as §1
# [7] = biological target: Gal(b1-4)GlcNAc(b1-6)Gal(b1-4)GlcNAc
# In short: as §1
# [8] = biological target: Gal(b1-4)GlcNAc(b1-6)GalNAc
# In short: as §1
# [9] = biological target: Gal(b1-4)GlcNAc(b1-6)[Gal(b1-3)]GalNAc
# In short: as §1
# [10] = biological target: Gal(b1-4)GlcNAc(b1-6)[Gal(b1-4)GlcNAc(b1-3)]GalNAc
# In short: as §1
# [11] = biological target: Gal(b1-4)GlcNAc6P
# In short: as §1
# [12] = biological target: Gal(b1-6)Gal
# In short: as §1
# [13] = biological target: Gal3S(b1-3)GalNAc
# In short: as §1
# [14] = biological target: Gal3S(b1-3)GlcNAc
# In short: as §1
# [15] = biological target: Gal3S(b1-3)[Fuc(a1-4)]GlcNAc
# In short: as §1
# [16] = biological target: Gal3S(b1-4)Glc
# In short: as §1
# [17] = biological target: Gal3S(b1-4)Glc6S
# In short: as §1
# [18] = biological target: Gal3S(b1-4)GlcNAc
# In short: as §1
# [19] = biological target: Gal3S(b1-4)[Fuc(a1-3)]Glc6S
# In short: as §1
# [20] = biological target: Gal3S(b1-4)[Fuc(a1-3)]GlcNAc
# In short: as §1
# [21] = biological target: Gal3S(b1-4)[Fuc(a1-3)]GlcNAc6S
# In short: as §1
# [22] = biological target: Gal3S4S(b1-4)GlcNAc
# In short: as §1
# [23] = biological target: Gal3S6S(b1-4)GlcNAc
# In short: as §1
# [24] = biological target: Gal3S6S(b1-4)GlcNAc6S
# In short: as §1
# [25] = biological target: Gal4S(b1-4)GlcNAc
# In short: as §1
# [26] = biological target: Gal4S6S(b1-4)GlcNAc
# In short: as §1
# [27] = biological target: Gal6P(b1-4)GlcNAc
# In short: as §1
# [28] = biological target: Gal6S(b1-3)GlcNAc
# In short: as §1
# [29] = biological target: Gal6S(b1-3)GlcNAc6S
# In short: as §1
# [30] = biological target: Gal6S(b1-4)Glc
# In short: as §1
# [31] = biological target: Gal6S(b1-4)Glc6S
# In short: as §1
# [32] = biological target: Gal6S(b1-4)GlcNAc
# In short: as §1
# [33] = biological target: Gal6S(b1-4)GlcNAc6S
# In short: as §1
# [34] = biological target: GalNAc(a1-3)Gal
# In short: as §1
# [35] = biological target: GalNAc(a1-3)GalNAc
# In short: as §1
# [36] = biological target: GalNAc(a1-3)GalNAc(b1-3)Gal(a1-4)Gal(b1-4)Glc
# In short: as §1
# [37] = biological target: GalNAc(a1-3)GalNAc(b1-3)Gal(a1-4)Gal(b1-4)GlcNAc
# In short: as §1
# [38] = biological target: GalNAc(b1-3)Gal
# In short: as §1
# [39] = biological target: GalNAc(b1-3)Gal(a1-4)Gal(b1-4)GlcNAc
# In short: as §1
# [40] = biological target: GalNAc(b1-3)Gal(a1-4)Gal(b1-4)GlcNAc(b1-3)Gal(b1-4)Glc
# In short: as §1
# [41] = biological target: GalNAc(b1-3)Gal(a1-6)Gal(b1-4)Glc
# In short: as §1
# [42] = biological target: GalNAc(b1-3)GalNAc
# In short: as §1
# [43] = biological target: GalNAc(b1-3)GlcNAc
# In short: as §1
# [44] = biological target: GalNAc(b1-4)Gal(b1-4)Glc
# In short: as §1
# [45] = biological target: GalNAc(b1-4)GlcNAc
# In short: as §1
binder,measurement,setting,value
B1,glycan array binding signal (z-score),[1],0.467
same,glycan array binding signal (z-score),[2],0.017
same,glycan array binding signal (z-score),[3],-0.118
same,glycan array binding signal (z-score),[4],0.092
same,glycan array binding signal (z-score),[5],1.9
same,glycan array binding signal (z-score),[6],-0.172
same,glycan array binding signal (z-score),[7],-0.19
same,glycan array binding signal (z-score),[8],-0.14
same,glycan array binding signal (z-score),[9],-0.081
same,glycan array binding signal (z-score),[10],0.061
same,glycan array binding signal (z-score),[11],-0.509
same,glycan array binding signal (z-score),[12],-0.201
same,glycan array binding signal (z-score),[13],-0.259
same,glycan array binding signal (z-score),[14],-0.252
same,glycan array binding signal (z-score),[15],-0.205
same,glycan array binding signal (z-score),[16],-0.214
same,glycan array binding signal (z-score),[17],-0.235
same,glycan array binding signal (z-score),[18],-0.297
same,glycan array binding signal (z-score),[19],-0.178
same,glycan array binding signal (z-score),[20],-0.281
same,glycan array binding signal (z-score),[21],-0.25
same,glycan array binding signal (z-score),[22],-0.235
same,glycan array binding signal (z-score),[23],-0.268
same,glycan array binding signal (z-score),[24],-0.24
same,glycan array binding signal (z-score),[25],-0.261
same,glycan array binding signal (z-score),[26],-0.328
same,glycan array binding signal (z-score),[27],0.93
same,glycan array binding signal (z-score),[28],-0.309
same,glycan array binding signal (z-score),[29],-0.334
same,glycan array binding signal (z-score),[30],-0.242
same,glycan array binding signal (z-score),[31],-0.241
same,glycan array binding signal (z-score),[32],-0.238
same,glycan array binding signal (z-score),[33],-0.295
same,glycan array binding signal (z-score),[34],-0.24
same,glycan array binding signal (z-score),[35],-0.195
same,glycan array binding signal (z-score),[36],-0.248
same,glycan array binding signal (z-score),[37],-0.228
same,glycan array binding signal (z-score),[38],-0.172
same,glycan array binding signal (z-score),[39],-0.103
same,glycan array binding signal (z-score),[40],-0.126
same,glycan array binding signal (z-score),[41],-0.204
same,glycan array binding signal (z-score),[42],-0.302
same,glycan array binding signal (z-score),[43],-0.206
same,glycan array binding signal (z-score),[44],-0.026
same,glycan array binding signal (z-score),[45],-0.033
